Measured values: the supplement of paper PMC12217912
Some of the results follow. The full chains were built here from the parent and the listed change. Inactive controls read about 0.05.

B1: TEV protease; numbered along this chain (parent)
chain: MGESLFKGPRDYNPISSSICHLTNESDGHTTSLYGIGFGPFIITNKHLFRRNNGTLVVQSLHGVFKVKDTTTLQQHLVDGRDMIIIRMPKDFPPFPQKLKFREPQREERICLVTTNFQTKSMSSMVSDTSCTFPSGDGIFWKHWIQTKDGQCGSPLVSTRDGFIVGIHSASNFTNTNNYFTSVPKNFMELLTNQEAQQWVSGWRLNADSVLWGGHKVFMVKPEEPFQPVKEATQL

Variants of: B1
Assay: raw area under fraction-flipped curve 0-4 h after induction (AUC4h, not background-subtracted), DNA-recorder readout of cleavage of the substrate (dimensionless); higher = more cleavage of the substrate by the protease variant
Conditions: temperature: 34 °C; time window: 0-4 h after rhamnose induction
Description: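 In vivo DNA recorder in E. coli TOP10(DE3) ΔrhaA at 34 °C. Each TEVp single-site mutant (parent TEVp 0) is paired with a single-site variant of the 7-mer TEVs (canonical ENLYFQ|S). The substrate sits between flexible linkers in a Bxb1-sfGFP-TEVs-SsrA fusion, so cleavage stabilises Bxb1 and speeds flipping of a recombination array, read by NGS. The value is the raw area under the fraction-flipped curve over 0-4 h after rhamnose induction (AUC4h), with ≥20 reads per time point. It is not background-subtracted; inactive controls average about 0.047.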
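Note: Bxb1 expression induced with 0.2% (w/v) L-rhamnose at OD600 near 0.5, cultures sampled hourly, flipped fraction per protease–substrate barcode pair counted by paired-end Illumina sequencing.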

| Variant | area with substrate CNLYFQS | area with substrate FNLYFQS | area with substrate HNLYFQS | area with substrate INLYFQS | area with substrate LNLYFQS | area with substrate PNLYFQS | area with substrate QNLYFQS | area with substrate SNLYFQS | area with substrate WNLYFQS | area with substrate VNLYFQS |
| --- | --- | --- | --- | --- | --- | --- | --- | --- | --- | --- |
| S154Q | 0.0666 | 0.0478 | 0.0147 | 0.066 | 0.0812 | 0.0614 | 0.0478 | 0.0518 | 0.0607 | – |
| G153W | 0.0583 | – | 0.0452 | – | – | – | – | – | 0.0581 | 0.0418 |
| G153E | 0.0481 | 0.0617 | 0.0516 | 0.0487 | 0.0417 | – | – | 0.0686 | – | 0.0523 |
| H143M | 0.0611 | 0.0577 | 0.0507 | 0.0858 | – | 0.0569 | 0.0768 | 0.0546 | 0.0572 | – |
| K148S | 0.0662 | – | – | – | 0.0676 | – | – | – | 0.0664 | – |
| K148D | 0.0584 | – | – | 0.0633 | 0.0497 | 0.0648 | – | – | 0.0604 | 0.05 |
| D149H | 0.0621 | – | – | 0.0564 | – | – | – | – | 0.0567 | 0.0563 |
| N172K | 0.0558 | – | – | – | 0.0665 | 0.0794 | – | – | – | – |
| N172Y | 0.0618 | – | – | – | – | – | – | – | 0.0744 | – |
| N172F | 0.0681 | – | 0.0657 | – | 0.0545 | – | – | – | 0.035 | 0.0599 |
| G138C | 0.0497 | – | – | – | – | 0.0666 | – | 0.0661 | 0.061 | – |
| N175W | 0.0481 | 0.0505 | – | – | – | 0.0548 | – | – | – | – |
| P134S | 0.0663 | 0.0509 | 0.0668 | 0.0787 | 0.0541 | 0.0705 | – | – | 0.0581 | – |
| T159A | 0.0788 | – | 0.0617 | – | 0.0692 | – | – | 0.0477 | 0.0451 | – |
| T159F | 0.0711 | – | 0.0581 | – | – | – | – | – | – | – |
| T159R | 0.0708 | – | 0.0293 | – | 0.0765 | 0.0696 | – | – | – | – |
| F133T | 0.0707 | – | 0.068 | 0.0645 | 0.0522 | 0.0494 | – | – | – | – |
| T147C | 0.0579 | – | – | – | 0.0732 | – | – | – | 0.0655 | – |
| T147D | 0.0508 | – | – | – | – | 0.065 | – | – | – | – |
| S171T | 0.0761 | 0.0824 | 0.0858 | 0.0692 | 0.0701 | – | – | – | – | – |
| F173R | 0.0501 | – | 0.0551 | – | 0.0737 | – | – | – | 0.0649 | – |
| K142Q | 0.0873 | – | 0.0711 | 0.0689 | – | – | – | 0.0707 | 0.0708 | 0.0646 |
| D161P | 0.0636 | – | – | – | – | 0.0522 | – | – | 0.0506 | – |

| Variant | area with substrate CNLYFQS | area with substrate FNLYFQS | area with substrate HNLYFQS | area with substrate INLYFQS | area with substrate LNLYFQS | area with substrate PNLYFQS | area with substrate QNLYFQS | area with substrate SNLYFQS | area with substrate WNLYFQS | area with substrate VNLYFQS |
| --- | --- | --- | --- | --- | --- | --- | --- | --- | --- | --- |
| V157I | 0.0429 | 0.0251 | 0.0616 | 0.0988 | 0.0608 | 0.0615 | – | 0.058 | 0.0649 | 0.045 |
| I145P | 0.0101 | – | – | – | – | – | – | – | – | – |
| N177K | 0.0727 | – | – | 0.0868 | – | 0.0729 | – | 0.0985 | 0.0508 | – |
| Y179N | 0.0466 | – | – | – | – | – | – | – | – | 0.0539 |
| Y179V | 0.0758 | 0.0621 | 0.0606 | 0.0483 | – | 0.0671 | – | 0.0909 | 0.0596 | – |
| Y179I | 0.0714 | 0.0587 | 0.0496 | – | – | 0.0627 | – | – | 0.0472 | 0.0486 |
| Q151F | 0.0557 | – | 0.052 | – | 0.0586 | 0.0537 | – | – | 0.0627 | – |
| Q151R | 0.0635 | 0.057 | 0.0546 | – | 0.0621 | 0.057 | – | 0.0526 | – | 0.0613 |
| C131R | 0.0663 | – | – | – | – | – | – | 0.0651 | 0.0709 | 0.0663 |
| C131Y | 0.0779 | – | – | – | 0.0672 | – | – | – | – | – |
| Q146L | 0.0834 | – | 0.0605 | 0.0755 | – | – | – | 0.0721 | 0.0562 | – |
| V126L | 0.0644 | – | 0.054 | – | – | 0.0842 | – | 0.0726 | 0.0622 | – |
| F140H | 0.0638 | – | – | – | 0.0629 | 0.0553 | – | – | 0.056 | – |
| T174V | 0.0712 | – | 0.0598 | – | – | – | – | 0.0586 | – | 0.0649 |
| T174H | 0.0845 | – | 0.0752 | – | – | 0.0633 | – | 0.0609 | 0.0549 | – |
| A170M | 0.0535 | – | – | – | – | 0.059 | – | – | – | – |
| M122G | 0.0679 | – | – | – | 0.067 | – | 0.0745 | – | 0.0595 | – |
| N178W | 0.0811 | – | – | – | – | – | – | – | – | – |
| N178V | 0.0666 | – | 0.0754 | – | 0.0642 | – | – | – | 0.0571 | 0.0761 |
| F163T | 0.0658 | 0.0751 | – | 0.0555 | 0.0755 | 0.0748 | 0.0734 | 0.0663 | 0.0699 | – |
| T129E | 0.0672 | – | – | 0.0558 | 0.0589 | 0.0588 | 0.061 | – | 0.0566 | – |
| T129M | 0.0628 | 0.0608 | 0.0647 | – | – | 0.0617 | – | – | 0.0614 | – |

Same assay, conditions: temperature: 34 °C; time window: 0-4 h after rhamnose induction

| Variant | area with substrate YNLYFQS | area with substrate NNLYFQS | area with substrate GNLYFQS | area with substrate KNLYFQS | area with substrate MNLYFQS | area with substrate TNLYFQS | area with substrate RNLYFQS |
| --- | --- | --- | --- | --- | --- | --- | --- |
| G153W | 0.0544 | – | – | – | – | – | – |
| G153E | 0.0393 | 0.0503 | – | – | – | – | – |
| H143M | 0.0585 | 0.0503 | 0.0659 | 0.0715 | 0.0637 | 0.0618 | – |
| K148S | – | – | – | – | – | 0.0479 | – |
| K148D | 0.0585 | 0.0525 | 0.0689 | 0.0674 | – | 0.0601 | 0.06 |
| D149H | 0.0583 | – | – | 0.0603 | 0.0601 | 0.0403 | – |
| N172K | – | 0.04 | 0.0624 | – | – | – | – |
| N172Y | 0.0663 | – | – | – | 0.0472 | 0.0656 | – |
| N172F | – | – | – | – | – | 0.0504 | – |
| G138C | – | – | – | – | – | 0.0628 | – |
| N175W | – | – | – | – | – | 0.0635 | – |
| P134S | – | – | – | 0.0647 | 0.0685 | – | – |
| T159A | – | – | – | 0.0441 | 0.0689 | 0.0441 | – |
| T159F | – | – | – | – | – | 0.0596 | – |
| T159R | – | 0.0626 | – | – | – | 0.0622 | 0.0905 |
| F133T | 0.0722 | 0.0677 | 0.0749 | – | – | – | – |
| T147C | 0.0694 | – | – | 0.0705 | – | – | – |
| T147D | – | – | – | – | – | – | 0.0642 |
| S171T | 0.0447 | 0.0666 | – | 0.126 | 0.041 | – | – |
| F173R | 0.0435 | – | – | – | – | – | 0.0661 |
| K142Q | 0.0854 | – | 0.0686 | – | – | 0.0674 | 0.089 |
| D161P | – | – | – | – | – | 0.0737 | – |

| Variant | area with substrate YNLYFQS | area with substrate NNLYFQS | area with substrate GNLYFQS | area with substrate KNLYFQS | area with substrate MNLYFQS | area with substrate TNLYFQS | area with substrate RNLYFQS |
| --- | --- | --- | --- | --- | --- | --- | --- |
| V157I | – | 0.065 | 0.0538 | 0.0637 | – | 0.0711 | – |
| N177K | 0.0716 | – | – | – | – | 0.0816 | – |
| Y179N | 0.0508 | – | 0.0491 | – | – | 0.0512 | – |
| Y179V | – | 0.0585 | 0.0698 | 0.0761 | 0.06 | – | – |
| Y179I | 0.0621 | 0.06 | – | – | 0.0618 | – | – |
| Q151F | – | – | – | 0.0775 | – | 0.0493 | – |
| Q151R | – | 0.0542 | 0.0724 | 0.063 | – | 0.0635 | 0.0763 |
| C131R | 0.0664 | 0.0654 | – | – | – | – | – |
| C131Y | – | – | – | 0.0974 | – | – | 0.0857 |
| Q146L | – | – | – | 0.0957 | – | 0.0592 | – |
| V126L | 0.0519 | – | – | – | 0.043 | 0.0657 | – |
| F140H | 0.066 | 0.0596 | – | – | – | 0.0564 | – |
| T174V | 0.0475 | 0.0569 | 0.0776 | 0.0543 | 0.0625 | – | – |
| T174H | – | 0.0438 | 0.0667 | – | 0.0714 | 0.0662 | – |
| A170M | – | – | – | 0.0708 | – | 0.0638 | – |
| M122G | 0.0887 | 0.0712 | 0.0927 | 0.0419 | 0.0672 | – | – |
| N178W | – | – | 0.0853 | – | – | – | – |
| N178V | 0.0645 | 0.0561 | – | – | 0.0306 | 0.0543 | – |
| F163T | – | 0.0672 | – | 0.0569 | – | 0.0411 | – |
| T129E | – | – | 0.0866 | – | 0.0682 | – | – |
| T129M | 0.0816 | – | – | 0.0621 | – | 0.0623 | – |
